From the supplement of paper PMC11417369
The other results are listed elsewhere or left out.

System: PfAP2-HC AP2 domain (GST-tagged)
Assay: gcPBM binding intensity (ln(normalized median fluorescence intensity)); higher = stronger DNA binding
In short: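 DNA-binding domains from P. falciparum, fused to GST and produced in E. coli, were put on an Agilent 4 × 180k double-stranded probe array for 1 h in 1× PBS holding 1% milk, 0.2 mg/ml BSA, 0.5% salmon testes DNA and 0.03% Triton X-100. Probes were primer-extended, 36 bp long and drawn from intergenic genomic regions, with negative controls included. After Alexa488 anti-GST antibody detection and a 488 nm scan, binding intensity was set as the highest Masliner-normalised natural-log median intensity across replicate spots of either probe orientation.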

Sequence	gcPBM binding intensity (ln)
GTAATATTTTATAGTAGTACATATTTTTATTATTTT [XGTACX_site3333]	9.64
ATATATATATATATATGTACATATTTTTGTTTGATG [XGTACX_site51]	9.66
CAGATATTCATATAAACACACATACAAATTATGTAT [CACACA_site4258]	9.78
TATATATATAATTAAGCATGCTAGAAACCTTTGAAA [TGCATGCA_site489]	9.61
TACAATCTAAAATACACACGCACACCGAAAAAAAAA [CACACA_site3520]	10.6
ATATATATATATATTGCACACACAATTATTATTATT [CACACA_site8721]	9.93
TGAAGAATATTTTTCACACATATATATATATATATA [CACACA_site6080]	9.45
GACAAACAATATGAATGTACATAAAAATATAACTAA [XGTACX_site1167]	9.96
TGAATATATAAATATGCACACTTCTATTATAAATAA [CACACA_site5796]	9.65
TAACATATAAGTGTGTGTACGTACTGCGTATAATAT [XGTACX_site8597]	9.97
TTTTAACATATAAGTACACACATATAATCAATCATA [CACACA_site2325]	9.77
ATAAACGTTTTTGAAAGTACATATCATTCATTTGAT [XGTACX_site200]	9.56
ATATAATATTTATATGTACACACCTTAATCCTTAAA [CACACA_site3555]	9.7
AAAAAAATTAATATGTCAGCACATATATACATACAT [GTGCAC_negctrl_site110]	9.77
TATATATATAAAAAAGCACACATACATACATACATA [CACACA_site8196]	10.2
CCTTATAAATACTGCACACATAAAATATATATTATC [CACACA_site2806]	9.83
TTTTATCGTTTTTTTTTTTTTTTTTTTTTTTTTTTT [CACACA_negctrl_site1309]	9.37
TTTGTTCATATGAAATGTACAAAAAAAAAAAAAAAA [XGTACX_site8849]	9.06
ATGTAGAAGTAATGCACACATATGTATTTATATATA [CACACA_site5391]	10.2
TCTTTTTTTACTTTCTTTTTTTTTTTTTTTTTTTTT [XGTACX_negctrl_site610]	9.3
TGTTAATTAAAACATCATTAATATTATTAAAAATAC [XGTACX_negctrl_site509]	9.36
AATTGATACCTTACATGTACATAATATATATAAATA [XGTACX_site321]	9.67

Sequence	gcPBM binding intensity (ln)
TTTTTACATACAAATTAACACACATATAGAAAAGAG [CACACA_site8570]	9.77
GAACCATTTTTTGGTATACACACGTAATTATATAAT [CACACA_site8552]	9.7
CCTTTATAAAAAAGTAGTACACAATGAATTTATAAT [XGTACX_site5523]	9.39
CAATACTAATTGTATACACACAAAAATATACCATAT [CACACA_site3326]	10
TATATTTATAGACACACACACAAAAAAAAAAAAAAA [CACACA_site6818]	10.8
TAATTTTTTTTATTATGTACTTAATAAATGTTAATT [XGTACX_site365]	9.48
AAATTATTTATATGTTGTACTTATCCATTTTTATAA [XGTACX_site7441]	9.68
TTAGCTACACGCTAATGTACACAAATACAAAGAAAA [XGTACX_site3993]	9.56
TATACGCATATATAAACACACAAAAAAAAAAAAAAA [CACACA_site2026]	9.43
TATATTAATTTATATCAACACACAAAATCAATATAC [CACACA_site8518]	9.91
AAGAATGTTATATTATGATGCTGTCTTTTTTTAAGA [CACACA_negctrl_site251]	9.4
AATAAACATATATGTACACACATATACATATATATA [CACACA_site2848]	9.83
TTTTTTTTTAATTATGCATGTAAATTATATATTATA [TGCATGCA_site335]	9.55
TATTTATAATTAAATACACACATATATTATATATTT [CACACA_site616]	9.79
CATATTTGTATATGCACACATAAATTTTTCCATTTC [CACACA_site3467]	9.81
AAATTTTTAAACAGCACACATAAATATAATATATAT [CACACA_site2208]	10
AAACAAAAAAACTACAGTACTTTTTTCAATTCCCCT [XGTACX_site7541]	9.57
TATATGTTTACTTAATGTACTTACATTTTTATAACA [XGTACX_site1100]	9.69
AAAATTAACCGTAACACACACACATATATATATATA [CACACA_site3964]	10.8
ACATAAATAATAAAAACACACATATGTACTTATATA [CACACA_site8581]	9.95
TTATTAATTTTTATTTTTAAATCACAAAAGATATAA [CACACA_negctrl_site787]	9.2
TTACATTTTTGAAATAGATACATACACGTGTATGTA [CACACA_negctrl_site1311]	9.47

Sequence	gcPBM binding intensity (ln)
GACATTAAAATGAAATATACATATATATGTATATAT [TGCATGCA_negctrl_site601]	9.68
ATATATATATATATTACACACATGTGCAATTAAAAT [CACACA_site1778]	9.97
AATATAAGAATATATACACACATAAATACATACATA [CACACA_site4128]	10
AATTGAAAAATCAGCACACACACAAATACATACATA [CACACA_site3232]	10.6
TGGTAATACACATACACACACACATACACATATATA [CACACA_site7312]	11.4
GCTATATATTACAATCGTACAATATATATATATATA [XGTACX_site6730]	9.7
AATACTTTTTATTTAGTGCATAAGAAAATATAAATC [GTGCAC_site9875]	9.57
AAAAAAAAAAATTCGGTGCAATGTAATTAATGTAAA [GTGCAC_site9588]	9.7
TATAAAATATGTATGAGGAATAAAATTAAAAAAAAA [TGCATGCA_negctrl_site178]	9.64
TTTTTAAAACCTTACATACACACAAATATATATATA [CACACA_site678]	9.74
TGTTCCGAAGGTTGTACACACATAGAAATATACATA [CACACA_site3874]	9.93
TGAATTCATAGCAGTTGTACATTGCATGAAGAAACG [XGTACX_site3312]	9.66
TCTTGTATACGGCATGCATGTTAGCACATACGGACA [TGCATGCA_site146]	9.57
TTTTTTTGCGCGGGAAGAATAAAATTTATAGAATAT [TGCATGCA_negctrl_site306]	9.29
AATTTACACGTACGTGTACACACAAAAATATGTTTT [CACACA_site8242]	9.92
CAGACATTAATAAGTAGTACACAATAATTGACTAGG [XGTACX_site854]	9.78
TTATATGTTTCTTCACGTACGTATAAAAATGAACTT [XGTACX_site1764]	9.5
TATTTTTATAAAAACTGTACATAATAAATAAAAATA [XGTACX_site4743]	9.5
AATCAAAGTAATTTAACACACAATTTTAATACTGTT [CACACA_site7169]	9.78
TATCATGTGCGTGCGTGTACTTAACACACATAATAT [XGTACX_site2404]	9.84
TTGTTCATTATGCACAGTACATAAAAAGTAAAAAAA [XGTACX_site2403]	9.68
ATATTGACAAATATTACACACATATATATATATATA [CACACA_site4079]	9.71

Sequence	gcPBM binding intensity (ln)
TCATTTATTTTAAGGTGTACCGTTTAAAATCACAAA [XGTACX_site3243]	9.18
AATGTTTAATATAACGCATGCCTTAATATAGAATGC [TGCATGCA_site463]	9.59
TTTCTAATTTATATCACACACATATATAAATAGTAA [CACACA_site6156]	9.72
ATATATATAATTTAAAGTACATATTTAAGAATGAAA [XGTACX_site2238]	9.62
AGTTTTATGTAGTGTTGTACTTTATACAAATATATA [XGTACX_site990]	9.7
TACAAAAATGTAGTCACACATATGTATACTTTTATG [CACACA_site5607]	9.86
AGTAATAATATAATTTGTACATATATATATTATAAA [XGTACX_site7138]	9.63
GTTTAACTGTTTTATACACACAATGTAGACAATAAA [CACACA_site8967]	9.7
CACTGTAAATAGAAAGTGCAAAAATTGTAAATAAAA [GTGCAC_site9980]	9.72
GTACAAAAAAAGTGTACACAAAGTAAGACTTTAATT [CACACA_site5068]	9.8
ACTTGATTACACAACCACAAGTAATTGAAATTATTT [XGTACX_negctrl_site297]	9.65
TAAATACATTGACACACACACAAATATGTACATACA [CACACA_site7371]	10.5
TGAAAAGATAAAAAATGTACATATATATTATATATA [XGTACX_site5678]	9.71
TTTCTAAATAATATACACAAAAAAATAAAACACTAA [TGCATGCA_negctrl_site43]	9.56
ATACACAATTATTTTCCTATTATGCAAGCAAATTTA [CACACA_negctrl_site1176]	9.52
ACATCTAGGCTTATTTTATGATACATGTGAATATAT [TGCATGCA_negctrl_site325]	9.77
GTTTTTGAGTAGTACACACACAATAAGGATGGATTC [CACACA_site3192]	9.93
ATAAAAACTACATTCACACAAAAAAAAATCTACAAA [CACACA_site6109]	9.69
AATAATATTAATAAAAGTACATGTGTAATATATATA [XGTACX_site5922]	9.88
ATAAAGATAATATATGCACACATATAAATATATAAA [CACACA_site9153]	10.1
ATATATATATGTTAGGTGCATATATATTTTGTGGAT [GTGCAC_site9964]	9.8
ATATATATAATATATTGTACATATAATATATATATA [XGTACX_site4792]	9.43
